Measurements: PMC10726135
The other results are listed elsewhere or left out. At the low end of the ranking the order means little. Measured with an extract: partners may take part in the binding.

The sequences below were run against T1, HNF4alpha8 (COS-7 nuclear extract) (UniProt P41235-5) (assay: protein-binding microarray). Details: COS-7 nuclear extract on double-stranded Agilent 4x180k PBM; binding buffer, salt, pH and temperature not given; high values mean tight binding; double strand, one strand shown; sequences stand for … in …GCCTAGGGAGATTAGAGTATCGGTCGA.
T1 sequence: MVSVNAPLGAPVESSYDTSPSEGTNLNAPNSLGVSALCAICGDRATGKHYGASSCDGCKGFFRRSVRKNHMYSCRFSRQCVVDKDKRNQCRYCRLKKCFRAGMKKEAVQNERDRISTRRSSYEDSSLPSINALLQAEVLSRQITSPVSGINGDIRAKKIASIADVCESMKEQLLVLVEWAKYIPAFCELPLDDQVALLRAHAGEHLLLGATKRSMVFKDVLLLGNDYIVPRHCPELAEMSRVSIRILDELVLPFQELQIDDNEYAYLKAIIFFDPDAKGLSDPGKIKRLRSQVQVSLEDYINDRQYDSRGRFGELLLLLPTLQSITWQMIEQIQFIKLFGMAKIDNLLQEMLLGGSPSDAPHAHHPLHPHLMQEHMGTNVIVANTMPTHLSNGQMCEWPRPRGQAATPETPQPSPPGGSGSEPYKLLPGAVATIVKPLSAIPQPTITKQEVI

Row | Sequence | binding signal (log2 normalized intensity)
1 | CCCCTTTGAAGTCTGCCCTCCATGTAACCC | 3.79
2 | TTAAATCCTCGAAGAGTTTGAACTATGTAC | 4.71
3 | TGGGATGAGAGAGCCCCTGTGATACAACGG | -1.34
4 | CAGAGAAAGAGAGAGTTAGTTCTGCAAACA | -1.33
5 | TGGATTGTGTTGCACTGTTTGCATAAAGTT | 1.66
6 | GCTGCAAAATTTGAACAAAAAAAGAAGAGC | -1.28
7 | TGTGCACACTTAGAAAATGCCCTCAATCAA | 1.86
8 | CAAGGGTCAATCCTCTCTTTGGAATGTGCA | 2.46
9 | AGTCCTGACCTTGGACTCTGCCCTTGGCCT | 6.67
10 | TGTTACTTATAAATAATCTCAACCATACAA | -1.22
11 | TGATAGCCATCTGGTGGACTTTGCTCTGCT | 8.15
12 | CCTAACCACCTGACCACAACACACAAGAAC | -1.24
13 | TCTCACTGACTCACGGCAGCTTGTACCCTT | 3.01
14 | AGGGTGTGTAAAACAGGTGAAAGATAAGGG | -1.42
15 | GAAGTGGGGGTGAGTCAGTCCCCAGCAATT | 1.11
16 | TCTGGTCATGGCCCTGAGGGAGGAGAGAGG | -1.36
17 | CTTCATGGACTCCTCTTATCTTCAGGTATC | 0.961
18 | TAAGAAAATGAAAACACAGCTCACCACCTA | -1.24
19 | CTATTAGTGGTTAAGTTTTCGAGGAGTCAA | 0.915
20 | CGCCACAGCACCACCTGCTGGTCAGGAGAC | -1.38
21 | GATGGAGATCATCCTGCAGTTCCTGATCTT | -1.07
22 | CAGATAATTCTTTGCTGTGGTAGGCTGTCC | 1.98
23 | AAAGGCAGGCAGTGGAGGGCTCCCTTTAGT | -1.36
24 | GGACCGCAGGGGGCTCCCGGACCCTGACTC | 1.43
25 | CTTTTGGTATGCAAGGCATGGTGCTTCGCA | -0.0292

Row | Sequence | binding signal (log2 normalized intensity)
26 | GGTTGGCTCTGAAGCAAGGATCAAAGTCAC | 2.72
27 | TTATCTACCAGGATGTGTGATCTTGGGTAA | 1.1
28 | GAGAGTCCACTCTCCTATCTTTCCCTCCAC | 0.358
29 | AATCCTCTGGTCTTTGCCCCAGCTCGCTCA | 1.95
30 | TCTAAGATTGGCCCTGATAATCAATCCAGC | -1.17
31 | GTAGTGGGGAGGGCATGGACTTTGGAATTA | 8.06
32 | CTTTGAACCCCACACCTCCCTTGCACCAGT | 3.35
33 | AAACCAACCTTTGATCATTCCTGCACAGGA | 3.8
34 | TCAAGGCAACTTTGGGCCAAATATTTATGG | 0.434
35 | AAAGCTGTCTACAAACACAGAAGTGGACCT | 3.96
36 | CTGATAGCATAAAGCTAGGAGACAACACCT | -1.23
37 | CTTACGCCGGCCCGGTGCGCTGGCCTTGCT | -1.28
38 | AAATTCCAGCAGGAATTGATATGTTAGTCT | -1.41
39 | CTCTGCAAATTTGCCTTGTCCTTAGACAGT | 1.45
40 | TTTTGAGTTTCTGATTAGCCTTTCCAAAGG | 1.53
41 | TCTCAGGGGCCTTGCAATGAGGCGACATCA | -1.16
42 | CCCCTGAAATATCATTATCTTGATCAGAAA | 0.622
43 | TGGGTGGATTTGGAGATCAGAGTCCAGCTG | 3.33
44 | AGAGCTTAAAAGCCCAACACGGGCGAAAAA | -1.34
45 | ACAGGAGCCCAGAGACAGTGGAATCTACAG | -1.36
46 | TAGGACCTTTGAACCAGAGAAGATTCCAGA | 3.15
47 | TGCTGGGCCCATTTTCCCATGGTCTGTAGA | -1.07
48 | GACCAAGGGTCAGTTTGAAATTAGGCAATA | 1.81
49 | ACCTCCCCCCACACCATTAGAGAACATGTA | 4.96
50 | CATGGATTTAGATAAGAGGCAGTCCTGGCT | -1.38

Row | Sequence | binding signal (log2 normalized intensity)
51 | CTTTGTTCTCCGGGTTCTGCGCAGGGAGGA | -0.809
52 | ATTTTACTCACCCCTTGCTGAGTGGAAAAA | 0.957
53 | CCTTTGGCCTTTACCTGTTACTTATAAATA | 1.05
54 | CCTTTCTACTGCCAGCCAGGGCCACCCATC | 0.592
55 | CCTCTCAAACAAAAATGATGCTACTGGAGG | -1.41
56 | TAGAACCGGGGAGATACTGTAAACCAGCAG | -1.29
57 | ACTGAAAAAGGGGACCGGCCTTTCCCGGCT | -1.3
58 | CTGACCTCAAGTGACCTTTGACCTCTGGCC | 11.2
59 | AACCTCCGCGATTCCCGCCGCCTCCGCTGG | -1.25
60 | AGGAGTGGTCCTGCTCAAAGGGGAAAGAGG | -1.2
61 | CTTTCTAAAGTATGTGGTGGGTGTGGTGAT | 1.79
62 | CCATTAAACATCAGTTTGCATATGCCACAG | -0.0841
63 | CATTGCTCAGACAGGGCAAAGGTGCCAGGT | 1.07
64 | GGCTCCCTGGGGTTAAAATGTTTACTGAAG | 0.937
65 | CAGAGAGAAGCCACTGCGACCTTTGCCCTC | 10
66 | CAGAGATCTAGGTGAGGGATGAGGACTTTG | 2.58
67 | TCCAGGGTCACGTGCCGCTGCGGGTCACGT | 2.34
68 | TCCCAAGGCAGCAATCCCCTGCAATACAGC | 0.796
69 | ACCACACCACAGCGGGGCCTCTGTGTGGGG | -1.02
70 | CTTGGGGTCAAAGTACATCCCCTAAAACAT | 6.61
71 | CCACTTGGGCTTCCTCATCTGTTTATCTTT | 1.74
72 | GGGGTGACCAGATTAATTACCCACAGGTGT | -1.28
73 | TAATCCCTGAGCCTGGACCTTGGAATGTCA | 3.99
74 | CGCAGGGCGGACAGCGCCGCCACCCGGTTG | -1.25
75 | GACATGGCTGTATGTGACATGGACATTCTA | 0.165

Row | Sequence | binding signal (log2 normalized intensity)
76 | GGTGTAAGCTCTGGAGTCCAAAGGTCAGCA | 8.69
77 | TAGTATCACTGTGAAGACGTTAGGGGGCAG | 1.18
78 | TTTCATGTTGTTTAGTCATGCCGAACTTTC | 1.68
79 | CAGGACCTCGGCTCGGCCCCAGTCCCCCGG | 3.75
80 | TCGCCACTACAAAGGGAATCAGGTTTTCAG | -1.27
81 | CACATAATGATACCAACAGGCTTAACATAA | -1.32
82 | TAAAGAGACAAAAGTCCGGAATTTCCTCCT | -0.869
83 | AGTTTTTCCCATTCATAAAATTACGCCACA | -1.35
84 | GCTATCTTATCTTTGACCTTACCAGCCCAC | 2.94
85 | CGCCTGAACTTTGATCAGCATTCAAATGAG | 4.5
86 | AGGCGTATCTTTCTCAAGGACCTAGAGCTA | -1.33
87 | GTATTTTTGCAATCCTCCACTCTCCAAAAT | -1.32
88 | CCAGCACTGTCAGCAGGGGGATCCACTTCC | -1.38
89 | GACAAAGCACAATCAAAGCAATGGCTACCA | -1.35
90 | GCGCGGCGCGCTGGGAAGGCTCGTTCTCGC | -1.24
91 | CCCAGGAGCACAAATAACATTCCTAACATT | -1.2
92 | GTTACTGGAGGCTGGAGCTCCTGGGCCAAA | -1.4
93 | TCTGGAAGGAAGGAGGGAGGCAGGGAGACA | -1.38
94 | TATCAGCAAGGAAATAAAAGAGCCTGAGCC | -1.19
95 | CTGCAGATTGACTCAGGCATTCTGACCTTT | 7.32
96 | GACGTGACCCGCCGCCCGAGGTCACTGTAT | 3.53
97 | GTCAGACCAGACAGCACCTCTCTGATGCCA | -1.19
98 | TCAGCTATCAGTTTACATTCCAGGGTGAAA | 0.191
99 | CACAAACATACAACCATCAAAGGTCACTTT | 4.93
100 | TCAGTTAATGTACAGAGTATAATAAAGTGG | 1.22

Row | Sequence | binding signal (log2 normalized intensity)
101 | AGTTCCATGAGTTAGTGCCCTCTGGTGGCA | 2.48
102 | TGGCTCCTCACCTCCAGGGAGGGGAGAGGG | -1.3
103 | CAAACTGCATTCTTGTAGGTTTTTTTTTTT | 2.45
104 | GCCCTGGTTGAGGAATTTGGCTCTAGAGGA | -1.23
105 | GGGCCAGCAAGAGGTGACCCCAGGGCAAAG | 3.69
106 | AGATAGAGGGCTGCCAAAGCTCACAGATGT | -1.42
107 | AGCCCGAGCTGCTGGAACAGGCTGGGACAC | -1.44
108 | ACGAAGAGCAAACATGGGCTTAAGACAAGA | -1.29
109 | TTTGCTCTGATCTTTGACTTCTAGTTCTTA | 2.18
110 | CCAGAACTATCATACACTATTTTCCTAAAT | -1.36
111 | TAGGTTATCTTTGGAGAATGCCTTTTGTGT | 1.81
112 | AGAAGGCAAAAATGCAGGCAATGAATAGAA | -1.17
113 | TTTTAAGGTCTGGCATTCTTTTTGACCTTT | 8.23
114 | TGTTTTTTGCCCTTTGTACCCACACACACC | 7.36
115 | CCGCTGGCCTCCCCATCCTCATGACAGTAC | 2.98
116 | GTTCACAAATAGCAGAAAATCCAGGTGCAG | -1.29
117 | TCCCCACTTATTACCGGTGTGACTTTGGTT | 2.28
118 | AAACTCCTTCCCTTTCATGTTGAACGTCTT | 1.84
119 | CTGGTTGAGGCAAGCAAAAGCCAAGGCATC | -1.41
120 | TGGCCCTCTTCCAAGTGTTCTTTACTTCCT | 0.96
121 | TGAAGTTACAAAGGTCACACACCTGTGCAA | 4.56
122 | CACTTGTGTGTAGACTCCAGGCTTGTCCTT | 1.71
123 | CCACAGTATCCCTTGCTCAACTCCCTCTGA | -1.05
124 | GAGAAACACATAAACCCTGACCCTCAAGGG | 1.55
125 | CAAACAAATGCAAAACTGGCAAAACTGGTC | -1.26

Row | Sequence | binding signal (log2 normalized intensity)
126 | TAATCACTGCCCTTTGGTGCCTCTTTTTTC | 2.22
127 | GCTGCCCTGGTAAGTTCCACTGCATCAGTG | -1.23
128 | TTGATCATTCCTGCACAGGACTGCTCTCTA | -0.304
129 | GTTCAGTTAGAGGGCTCAATGGATACACCA | -1.31
130 | CAGTAGAAAACAGAGAAGCCGTGGTGCTGT | -1.03
131 | TTCTTGTATCTGATCTGTGTTTCCACAAAC | 1.52
132 | GGAGGCTCAGAGTCTGTGGAGACACTGCCA | -1.24
133 | GATAAAATGAAATCGCCTGATTGGTCATAC | 0.0457
134 | GTGACCTTTGACCTCTGGCCTTTGCAGTTA | 8.79
135 | AGTTGGAGGAACAGGTGGGGGTAAACATAG | -1.22
136 | GCAAGGCTAGAGATTCTCCCTGGGGCCTCT | -1.37
137 | TGGCATGATCCCTGACTCATAGCTCCAGAG | -1.24
138 | TCAGATGAGACTTTGGACTTTTGAACTAAG | 7.23
139 | CAGAGGCTTCCTCTTTGGTGCAAAGGTCAG | 7.47
140 | ACCCAGATAAGTTATCCTTGTTCTATGTTC | 1.73
141 | CTCGGGGATTAGCGATCATGGGTGACCCGT | 3.6
142 | GAAGTTTTGCAATATAGGCCAGGCATACCT | -1.4
143 | TGAGAGAGAAAGAGACAGAGAGAGAGAGAG | -1.34
144 | CTCTGGAGTGCAGGTGGGAGGGGTGGACTT | 3.11
145 | TCAGGGCAAAGACTCAAATCCAAGCTGGCT | -1.26
